# Values joined by “and” are separate entries in the source; they are usually repeats but may differ in a detail not shown here. Identical values can stand only once. Screen size: about 420,000 compounds; about 50,000 (12%) were called active. Inconclusive results, whose numbers are uncertain, are shown with a selection of clear calls. Calls follow the shape of the dose curve; as a rule, active = well fitted inhibition curve with a large enough effect; inconclusive = small, poorly fitted or top-dose-only effect; inactive = flat fitted curve, though single readings scatter. Potencies beside an inconclusive call are fits to weak or partial responses and may not hold up.
# Experiment: qHTS for Inhibitors of human tyrosyl-DNA phosphodiesterase 1 (TDP1): qHTS in cells in presence of CPT; also: nearly all actives have a fitted effect of over 55% in size
# Settings: chicken DT40 Tdp1-/-;hTDP1 cells + 20 nM CPT, ATP luminescence, 48 h; activity change, negative = growth inhibition: at 46.2 µM (top of the series) unless noted
# Outline: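 Chicken DT40 Tdp1-/- cells stably complemented with human TDP1 were seeded at 400 cells/well in medium containing 20 nM camptothecin, exposed to pin-transferred compounds, and grown at 37 °C for at least 48 hr. Viability was read as ATP luminescence.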
# % is scaled to controls: 0 for no effect and ±100 for the full control effect; potency is read from the fitted curve at half-maximal effect; tags tell the direction and shape of the fitted curve.
Structure (SMILES),"activity change, negative = growth inhibition",Potency
O=C(N=C1SC2CS(=O)(=O)CC2N1Cc1ccccc1)C1CCCCC1 (configuration not stated),inactive: -13.9%,
O=C(NCC(c1ccco1)N1CCCC1)c1ccccc1Sc1ccc(C(F)(F)F)cc1[N+](=O)[O-] (configuration not stated),,"inconclusive: 20.6 µM [inhibitor, single point]"
CCOc1cc(C(=O)NCC(c2ccc(N(C)C)cc2)N2CCOCC2)cc(OCC)c1OCC (configuration not stated),,active: 20.6 µM
CCOC(=O)N1CCC(NC(=O)CSCc2nc(-c3ccc(OC)cc3)oc2C)CC1,inactive: -20.4%,
COc1ccc(Cl)cc1C(=O)NNC(=O)C1COc2ccccc2O1 (configuration not stated),,"inconclusive: 29.1 µM [inhibitor, single point]"
COc1ccc(NC(C)=O)cc1NC(=O)CN1CCN(c2ccc(F)cc2)CC1,,"inconclusive: 29.1 µM [inhibitor, single point]"
O=C(OCC(=O)c1c[nH]c2ccccc12)c1cc(Br)ccc1O,inactive: 10.3%,
O=c1c2c(nc3c(-c4ccccc4)c[nH]n13)CCCC2,,active: 23.1 µM
CCC(=O)N1CCN(c2nc(-c3ccccc3)c3c(c2C#N)CCCC3)CC1,,"inconclusive: 18.4 µM [inhibitor, partial curve]"
CCN1CCN(C(=O)C2CCN(Cc3cc(Cl)ccc3O)CC2)CC1,inactive: -6.9%,
COc1ccc([C@H]2CC(=O)C=C(c3ccc4[nH]ccc4c3)C2)cc1OC,,"inconclusive: 18.4 µM [inhibitor, single point]"
CCOc1ccc(-n2c(SCC)nc3c(c2=O)SCC3)cc1,inactive: -13.2%,
CCOc1ccc(/C=C/C2=Cc3c(sc(NC(=O)CSc4n[nH]c(N)n4)c3C#N)C(C)(C)C2)cc1,,active: 13 µM
CC(C)N(C)c1ncnc2c1ncn2[C@H]1CN(CCc2ccccc2)C[C@@H](CO)O1,,"inconclusive: 29.1 µM [inhibitor, single point]"
O=C(Cn1cc(S(=O)(=O)c2ccccc2)c(=O)c2cc(Cl)ccc21)Nc1ccc2c(c1)OCO2,inactive: 3.81%,
CC(CN(C)C)CN1c2ccccc2Sc2ccc(C(F)(F)F)cc21 (configuration not stated),,"inconclusive: 26.6 µM [inhibitor, single point]"
O=C(NCCCN1CCOCC1)c1ccc2c(c1)N(Cc1cccc(Cl)c1)C(=O)c1ccccc1S2,,"inconclusive: 18.4 µM [inhibitor, single point]"
COc1cccc(NC(=S)NN=C2CCC(C(C)(C)C)CC2)c1 (configuration not stated),,"inconclusive: 18.4 µM [inhibitor, single point]"
COc1ccc(CNc2nc(Cl)nc3nc[nH]c23)cc1,,inactive
Cc1cc(Nc2cccc(C(F)(F)F)c2)nc2ccc(NC(=O)c3cccc(Cl)c3)cc12,,active: 13 µM
CC1CCC(NC(=O)CN2C(=O)NC(C)(C)C2=O)CC1 (configuration not stated),inactive: -8.72%,
C=CCn1c(SCC(=O)N2CCOCC2)nc2sc3c(c2c1=O)CCCC3,,"inconclusive: 16.4 µM [inhibitor, single point]"
Oc1ccc(C=NNC(=S)Nc2ccc(F)cc2)c(O)c1,inactive: -104%,

Structure (SMILES),"activity change, negative = growth inhibition",Potency
COc1cc2c(cc1OC)CN(C(=O)CCOc1ccccc1C)CC2,,"inconclusive: 29.1 µM [inhibitor, single point]"
COC(=O)c1cc(Br)cn1S(=O)(=O)c1ccccc1,,"inconclusive: 29.1 µM [inhibitor, partial curve, poor fit]"
CCCNC(=S)N1CCC(C(=O)c2ccc(Cl)cc2)CC1,,active: 23.1 µM
CC(C)(C)c1cc(NS(=O)(=O)c2ccc(Br)s2)no1,inactive: -5.48%,
CCOc1ccc(CNCc2c(C(=O)O)c(C)n(Cc3c(F)cccc3Cl)c2C)cc1OC,,"inconclusive: 9.2 µM [inhibitor, single point]"
CCNC(=O)NC(=O)C(C)OC(=O)c1cccn1C (configuration not stated),inactive: -12.1%,
Cc1cccc(C)c1-n1nnnc1C1c2ccccc2C(=O)N1CCc1ccccc1F (configuration not stated),,"inconclusive: 23.1 µM [inhibitor, single point]"
CC(C)(C)c1csc(N/N=C/c2ccc(O)cc2)n1,,"inconclusive: 29.1 µM [inhibitor, single point]"
OC1(c2ccc(Cl)cc2)CCN(Cc2nc(-c3cnccn3)no2)CC1,inactive: -23.1%,
CC1CCCN(S(=O)(=O)c2ccc3c(c2)c(=O)nc2ccccn23)C1 (configuration not stated),,"inconclusive: 25.9 µM [inhibitor, single point]"
O=c1c2ccccc2c(C=Nc2cccc(O)c2)c(O)n1-c1ccc2c(c1)OCO2,,active: 6.51 µM
CCCCN(CCCNC(=O)c1cc(Nc2ccc(OC)c(OC)c2)nc2ccccc12)c1ccccc1,,active: 14.6 µM
CC(C)(C)OC(=O)N(CCc1ccccc1)Cc1cccc(OCc2cccc(NC(=O)C3CCCC3)c2)c1,,"inconclusive: 29.1 µM [inhibitor, single point]"
COc1ccccc1NC(=O)c1nn(-c2cccc(C(F)(F)F)c2)ccc1=O,,"inconclusive: 29.1 µM [inhibitor, single point]"
CCN1CCN(Cc2c(O)ccc3c2O/C(=C\c2ccc(C)cc2)C3=O)CC1,,"inconclusive: 29.1 µM [inhibitor, single point]"
COc1ccc(CNC(=O)C[C@H]2C(=O)N(Cc3ccccc3)C[C@@H]2Cc2ccccc2)cc1,,"inconclusive: 35.5 µM [inhibitor, single point] and inconclusive: 20.6 µM [inhibitor, single point]"
Cc1ccc(-c2cn3c(n2)sc2cc(C(=O)NCCCc4ccccc4)ccc23)c(C)c1,,active: 23.1 µM
Cc1ccc(/C([O-])=C(/C(=S)NCc2ccc3c(c2)OCO3)[n+]2ccc(N(C)C)cc2)c(C)c1,,"inconclusive: 2.31 µM [inhibitor, partial curve]"
CC(=O)O[C@@]12CO[C@@H]1C[C@H](O)[C@@]1(C)C(=O)[C@H](O)C3=C(C)[C@@H](OC(=O)[C@H](O)[C@@H](NC(=O)OC(C)(C)C)c4ccccc4)C[C@@](O)([C@@H](OC(=O)c4ccccc4)[C@H]21)C3(C)C,,active: 3.3 nM and active: 1.1 nM
N#Cc1sc(NCc2ccccn2)nc1Cl,inactive: 3.92%,
CC(C)c1ccc(S(=O)(=O)N2CCC(N3CCN(Cc4ccccc4)C(=O)C3=O)CC2)cc1,,"inconclusive: 29.1 µM [inhibitor, single point]"
COC(=O)c1ccc(Oc2c(C)oc3c(CN4CCN(C)CC4)c(O)ccc3c2=O)cc1,inconclusive: -23.5% [inhibitor],
COc1cc([N+](=O)[O-])cc(/C=N\NC(=O)C2COc3ccccc3O2)c1O (configuration not stated),,"inconclusive: 29.1 µM [inhibitor, single point]"

Structure (SMILES),"activity change, negative = growth inhibition",Potency
CC(C)Cn1c(SCC(=O)NC(=O)Nc2ccc3c(c2)OCCO3)nc2ccccc2c1=O,,"inconclusive: 29.1 µM [inhibitor, single point]"
CCCCCCn1c(N2CCCC2)nc2c1c(=O)n(C)c(=O)n2C,,"inconclusive: 18.4 µM [inhibitor, single point]"
Cc1cc(-c2ccc(C(C)C)c(S(=O)(=O)N3CCN(c4ccccn4)CC3)c2)on1,,active: 18.4 µM
CCOC(=O)c1c(CN2CCOCC2)n(C)c2cc(Br)c(O)c(CN(C)C)c12,,"inconclusive: 18.4 µM [inhibitor, single point]"
CCCCN(CCCC)c1ncnc2nc[nH]c12,,"inconclusive: 10.3 µM [inhibitor, partial curve]"
CCOC(=O)C1=C(CS(=O)(=O)c2ccccc2)NC(=O)NC1c1cc(OC)c(O)c(OC)c1 (configuration not stated),inactive: -3.29%,
CCc1nn2c(=O)c(S(=O)(=O)Nc3ccc(Cl)cc3)c(C)nc2s1,,"inactive and inconclusive: 29.1 µM [inhibitor, single point]"
Cc1ccccc1Nc1c(-c2cccnc2)nc2ccc(Cl)cn12,,active: 11.6 µM
CCN(CC)CCN(C(=O)c1cc2ccccc2cc1OC)c1nc2ccc(F)cc2s1,,active: 18.4 µM
COc1cc(OC)c(N(C)S(=O)(=O)c2cccc(C(=O)OCC(=O)c3c[nH]c4ccccc34)c2)cc1Cl,,"inconclusive: 29.1 µM [inhibitor, single point]"
CCOC(=O)c1cnc2c(C)c(Cl)ccc2c1Nc1ccc(N2CCOCC2)cc1,,"inconclusive: 29.1 µM [inhibitor, single point]"
COc1ccc(NC(=S)NC(NC(=O)c2ccc(Cl)cc2Cl)C(Cl)(Cl)Cl)c([N+](=O)[O-])c1 (configuration not stated),,"inconclusive: 13 µM [inhibitor, partial curve]"
Cc1ccc2oc(=O)n(CCCOc3ccccc3Cl)c2c1,,active: 20.6 µM
Cc1cc(C)c(S(=O)(=O)NCC(c2ccc(N(C)C)cc2)N2CCOCC2)c(C)c1 (configuration not stated),,"inconclusive: 29.1 µM [inhibitor, single point]"
Cc1ccc(N(CCC#N)C(=O)COC(=O)C2CCN(S(=O)(=O)c3ccc4c(c3)OCCO4)CC2)cc1,inactive: -9.54%,
COc1ccccc1-c1noc(-c2ccc(NCC3CCCO3)c([N+](=O)[O-])c2)n1 (configuration not stated),,active: 18.4 µM
Cc1cccc(NC(=O)C2CCCN2/C=C/C(=O)C(F)(F)F)c1C (configuration not stated),inactive: -8.29%,
CN(C)C(CNC(=O)c1cc(S(=O)(=O)N(C)c2ccccc2)ccc1Cl)c1ccccc1 (configuration not stated),,active: 5.8 µM
COc1ccc(CCN(Cc2cc3cccc(C)c3[nH]c2=O)C(=O)N2CCCC2)cc1OC,,"inconclusive: 20.6 µM [inhibitor, single point]"
CN(CC(=O)Nc1ccc(Cl)c(C(F)(F)F)c1)C(=O)C1CCC1,,"inconclusive: 16.4 µM [inhibitor, partial curve]"
CNc1ccc(-c2cccc([N+](=O)[O-])c2)cn1,,"inconclusive: 29.1 µM [inhibitor, single point]"

# — PubChem BioAssay AID686979 (National Center for Advancing Translational Sciences (NCATS), 2013)
